This is an account of results in PubChem BioAssay AID1159614 (National Center for Advancing Translational Sciences (NCATS), 2016).

About 65 (0.1%) of roughly 45,000 compounds were called active. The call rests on the fitted dose curve; in most records, active means well fitted activation curve with a large enough effect; inconclusive means small, poorly fitted or top-dose-only effect; inactive means no such curve, though single readings can be large or run the other way. Some of the results follow.

Chain of UniProt P54803 (P54803 whole entry, looked up): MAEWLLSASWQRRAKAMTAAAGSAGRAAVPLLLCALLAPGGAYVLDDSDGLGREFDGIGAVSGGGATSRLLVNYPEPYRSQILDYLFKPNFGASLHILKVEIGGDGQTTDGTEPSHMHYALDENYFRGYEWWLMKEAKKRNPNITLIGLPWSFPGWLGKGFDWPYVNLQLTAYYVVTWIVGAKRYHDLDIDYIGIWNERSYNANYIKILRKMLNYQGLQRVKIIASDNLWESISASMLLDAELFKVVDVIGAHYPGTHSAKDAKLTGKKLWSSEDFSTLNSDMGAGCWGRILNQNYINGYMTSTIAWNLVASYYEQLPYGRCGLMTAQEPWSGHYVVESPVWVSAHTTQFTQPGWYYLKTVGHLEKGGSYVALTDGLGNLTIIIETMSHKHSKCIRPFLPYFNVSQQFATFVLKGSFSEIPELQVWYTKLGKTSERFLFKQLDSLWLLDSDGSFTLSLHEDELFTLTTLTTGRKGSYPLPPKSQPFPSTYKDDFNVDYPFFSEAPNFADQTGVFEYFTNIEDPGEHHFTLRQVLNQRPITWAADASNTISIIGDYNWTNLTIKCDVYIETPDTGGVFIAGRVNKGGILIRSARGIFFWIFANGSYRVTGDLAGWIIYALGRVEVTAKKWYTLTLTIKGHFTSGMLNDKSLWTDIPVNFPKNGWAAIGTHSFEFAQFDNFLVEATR

The target of this test is Galactocerebrosidase (Homo sapiens) (UniProt P54803). Kind of test: A Novel Cell-Based Assay to Identify Small Molecules for B -Galactocerebrosidase. Further: 0% is about no effect; nearly all actives have a fitted effect of over 65% in size. As to conditions: 145M-Twi-hGALC-G270D cells (Twitcher mouse brain line with human GALC G270D), HMU-beta-Gal fluorescence, 48 h; series mostly up to 57.5 µM; activation: at the top concentration. A digest of the protocol:
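Fluorescence readout: HMU-β-gal cleavage by mutant GALC (0.1 mM final, citrate/phosphate pH 5.2 with 1 mg/mL taurocholate), stopped with carbonate/bicarbonate plus Triton X-100. Cells: murine Twitcher 145M-Twi expressing human G270D GALC; qHTS for activators.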
As to `Cc1ccc(CN2c3ccccc3-c3nc(SCC(=O)Nc4c(C)cc(C)cc4C)ncc3S2(=O)=O)cc1`, the “activation” value was inactive: -10.1%. On to `COc1ccc(NC(=O)Nc2cc(-c3cn4cccnc4n3)ccc2OC)cc1`, for which the “activation” value is inactive: 15.7%. In the case of `Brc1ccc2c(c1)NC(c1cccnc1)=NC(c1ccccc1)=N2`, the “activation” value is inactive: -18%. Take `O=C(OCc1ccccc1Cl)c1ccc(-c2nnn(Cc3ccc(F)cc3)n2)cc1`: the “activation” value is inactive: -9.62%. For the compound `Cc1nn2c(=O)cc(COc3ccc(/C=C(\C#N)C(=O)Nc4ccccc4)cc3Cl)nc2s1`, the “activation” value is inactive: -4.27%. Then `CCC(=O)Nc1ccc(CC)cc1-c1nc2ccccc2n(CC(=O)Nc2ccccc2C)c1=O`, with inactive: -12.5%. On to `Cc1ccc(NC(=O)Cn2c(=O)oc3cc(S(=O)(=O)N4CCCCC4)ccc32)c(C)c1`, for which the “activation” value was inactive: -33.2%. For the compound `COc1ccc(-c2onc(C)c2C)cc1S(=O)(=O)Nc1cc(Cl)ccc1C`, the “activation” value was inactive: -3.08%. For `COc1ccc(-c2cc3nc(C)c(CCC(=O)N4CCN(c5ccccc5F)CC4)c(C)n3n2)c(OC)c1`, the “activation” value was inactive: -31.7%. For the compound `O=C(CSc1nc2ccccc2nc1Cc1ccccc1F)Nc1cccc(C(F)(F)F)c1`, the “activation” value was inactive: -6.5%. Turning to `Cc1ccc(CNc2ncnc3onc(C)c23)cc1`, the “activation” value is inactive: -26.5%. As to `CCN(CC)c1ccc(NC(=O)CCS(=O)(=O)c2ccc3c(c2)oc(=O)n3C)c(C)c1`, the “activation” value was inactive: -16.7%. On to `COC(=O)c1ccccc1NC(=O)c1cc(CN2CCOCC2)on1`, for which the “activation” value was inactive: -22.2%. The figure for `CCOc1cc(C(=O)NCc2nc(-c3cccc(C)c3)no2)cc(OCC)c1OCC` is inactive: -21.4%; for `CCc1cccc(C)c1Nc1c(-c2cccs2)nc2nc(C)cc(C)n12` it is inactive: -17.8%; for `CCc1ccccc1NC(=O)CSc1nnc(COc2ccccc2Cl)o1` it is inactive: -18.4%. The figure for `Cc1cn2c(=O)cc(COC(=O)c3ccc(NC(=O)COc4ccc(C)c(C)c4)cc3)nc2s1` is inactive: -7.17%. With `COc1cc(C(=O)Nc2ccc(-c3nc4ccccc4o3)c(O)c2)cc(OC)c1OC`, the “activation” value is inactive: 3.89%. Consider `COc1cc2c(cc1OC)C(COc1ccc(F)cc1)N(C(=O)Cc1ccccc1)CC2` (centres undefined), for which the “activation” value is inactive: -16.4%. For the compound `CCOc1ccc(-c2cc(C(=O)NCCCOC)c3c(-c4ccc(CC)cc4)[nH]nc3n2)cc1`, the “activation” value is inactive: 3.42%. On to `CCCOc1ccc(C2c3c(-c4ccccc4O)n[nH]c3C(=O)N2Cc2cccnc2)cc1` (centres undefined), for which the “activation” value was inactive: -19.9%. Take `CC(C)OCCCn1c(=O)c2ccccc2n2c(-c3cc(Cl)ccc3O)nnc12`: the “activation” value was inactive: -8.85%. As for `Cc1ccc(Cn2c(CNC(=O)Cc3cccc([N+](=O)[O-])c3)nc3cccnc32)cc1`, the “activation” value was inactive: 3.44%. Then `COc1ccc(-c2nc3ccccc3s2)cc1NC(=O)c1cccc([N+](=O)[O-])c1C`, with inactive: -9.02%. The figure for `CCn1c(=N)c(C(=O)NCC2CCCO2)cc2c(=O)n3cc(C)ccc3nc21` (centres undefined) is inactive: -9.97%; for `O=S(=O)(NCC(c1ccccc1)N1CCc2ccccc21)c1ccccc1` (centres undefined) it is inactive: -2.29%; for `O=c1c2ccccc2n(Cc2c(F)cccc2Cl)c(=O)n1Cc1ccccc1` it is inactive: 10.7%. As to `COCc1nc2ccccc2n1Cc1cccc(C)c1`, the “activation” value was inactive: -15.5%. Turning to `CCn1c(=O)c2sccc2n2c(CCC(=O)Nc3ccc(OC)cc3OC)nnc12`, the “activation” value is inactive: -10.7%.

As for `CCc1ccccc1NC(=O)CN1C(=O)c2cccnc2Sc2ccccc21`, the “activation” value is inactive: 4.81%. Then `CCCCOc1ccc(CNC(=O)C2CCCN(c3nnc(-n4c(C)ccc4C)s3)C2)cc1` (centres undefined), with inactive: -5.21%.

Consider `COc1cc(C(=O)N2CCC(c3nc4ccccc4s3)CC2)cc(OC)c1OC`, for which the “activation” value is inactive: -18.1%. On to `COc1ccc(C2=C(C)C(=NCc3ccc(OC(C)C)cc3)NS2(=O)=O)cc1`, for which the “activation” value is inactive: -20%. The figure for `Cc1ccc2c(c1)sc1nc(=O)n(-c3ccc(Cl)c(Cl)c3)c(=O)n12` is inactive: -18.2%. In the case of `CCc1ccc(-c2cc(C)no2)cc1S(=O)(=O)Nc1cc(OC)c(OC)c(OC)c1`, the “activation” value was inactive: -12.1%. For `Cc1ccc(S(=O)(=O)N2CCN(Cc3ccc4c(c3)OCO4)CC2)cc1`, the “activation” value is inactive: -14.4%.

For the compound `CCn1c(=O)cc(OCC(=O)N2CCN(c3cccc(Cl)c3)CC2)c2ccccc21`, the “activation” value is inactive: -11.3%. For `CNC(=O)c1cc(Oc2ccc(NC(=O)Nc3ccc(Cl)c(C(F)(F)F)c3)cc2)ccn1`, the “activation” value is inactive: -20.3%. Take `CCNc1ccc(-c2nc(-c3ccncc3)no2)cc1[N+](=O)[O-]`: the “activation” value is inactive: 1.29%. The figure for `COc1ccc(C(=O)NCCn2cc(SCC(=O)Nc3ccc(F)cc3)c3ccccc32)cc1` is inactive: -4.15%; for `Cc1ccc2c(=O)c(C(=O)c3ccccc3)cn(CC(=O)Nc3ccccc3C)c2n1` it is inactive: -15.5%; for `COc1cc(NC(=O)Cn2cnc3sc(C)c(S(=O)(=O)N4CCC(C)CC4)c3c2=O)cc(OC)c1OC` it is inactive: -13.5%.

Turning to `O=C(COc1ccccc1F)Nc1ccc2nc(SCC(=O)N3CCCC3)sc2c1`, the “activation” value is inactive: -5.73%.

Turning to `Cc1nc(-c2ccc(S(=O)(=O)NCc3ccc(OC(C)C)cc3)cc2)co1`, the “activation” value is inactive: -30.3%.

As to `Cc1nn(CCCC(=O)Nc2cccc(C(F)(F)F)c2)c(=O)c2nn(-c3ccccc3)c(C)c12`, the “activation” value was inactive: -11.8%. For `CCN1CCN(C(=O)N[C@@H](C(=O)N[C@@H]2C(=O)N3[C@@H]2SC(C)(C)[C@H]3C(=O)O)c2ccccc2)C(=O)C1=O`, the “activation” value was inactive: -17.1%. Then `CCn1cc(C(=O)NCCc2ccc(Cl)cc2)c(=O)c2cc(S(=O)(=O)N3CCCCCC3)ccc21`, with inactive: -11.7%; and `COc1cccc2c1C(=O)c1c(O)c3c(c(O)c1C2=O)C[C@@](O)(C(C)=O)C[C@@H]3O[C@H]1C[C@H](N)[C@H](O)[C@H](C)O1`, with inactive: -15.4%; and `CCOc1ccc(C(=O)c2cn(CC(=O)Nc3ccc(F)c(F)c3)c3cc4c(cc3c2=O)OCCO4)cc1`, with inactive: 6.72%.

As to `CSc1ncc(Cl)c(C(=O)Nc2c(C(=O)c3ccc(C)c(F)c3)oc3ccccc23)n1`, the “activation” value is inactive: -9.95%. Regarding `COc1cccc(NC(=O)CCc2nc(-c3cccs3)no2)c1`, the “activation” value is inactive: -10.2%. As for `COc1ccc(-c2noc(CSc3nc(N)cc(=O)[nH]3)n2)cc1`, the “activation” value was inactive: -11.8%. As to `Cc1cccc(N2CCN(c3ccc(NC(=O)c4ccccc4)cc3C(=O)O)CC2C)c1` (centres undefined), the “activation” value was inactive: -7.8%. The figure for `Cc1cccc(NC(=O)c2ccc3nc(CCc4ccccc4)oc3c2)c1C` is inactive: -22.7%; for `COc1cccc(CNC(=O)C(Cc2ccccc2)NS(=O)(=O)c2ccc3c(c2)oc(=O)n3C)c1` (centres undefined) it is inactive: -12%; for `Cc1cccc(OC(=O)c2cc(-c3ccc4c(c3)OCCO4)on2)c1C` it is inactive: 4.98%. For `Cc1cc2[nH]c(=O)c(=O)[nH]c2cc1S(=O)(=O)Nc1ccc(OC(F)(F)F)cc1`, the “activation” value is inactive: 8.78%. Consider `O=C(Nc1ccccc1)c1ccc2c(O)c(S(=O)(=O)c3ccc(Cl)cc3)c(=O)[nH]c2c1`, for which the “activation” value is inactive: -14.3%. Then `CCCS(=O)(=O)N1CCC(N2CCN(Cc3ccc(F)cc3)C(=O)C2=O)CC1`, with inactive: -19.1%.
